Out of some 150,000 compounds screened, about 540 (0.36%) showed an effect of 50% or more. Some of the results follow.
Each compound was assayed on Plasmodium falciparum (assay: Primary screen in NF54 nanoGlo assay, in single point, at 2uM, 72h; a lower Z score goes with more inhibition). Settings: timepoint 72 hour.
Assay type: functional, Erythrocyte
For `O=C(c1cccc(=O)[nH]1)N1CC(C(F)(F)F)C1`, the “% Inhibition” value was -7% and the Z score was 0.96. For `CC1CCN(C(=O)NCCS(=O)(=O)NC2CC2)CC1`, the “% Inhibition” value was -2% and the Z score was 0.33. With `O=C(Cn1ccccc1=O)N[C@H]1CCCCNC1=O` the “% Inhibition” value was -1% and the Z score was 0.18. In the case of `CCNC(=O)N(C)Cc1ccc(OC)c(O)c1`, the “% Inhibition” value is reported as -11% and the Z score is reported as 2. For `CCCC[C@@H]1NC(=O)c2ccc(OC)c(c2)OCCCn2cc(nn2)CNC(=O)[C@@H](C)NC1=O`, the “% Inhibition” value was -20% and the Z score was 3.88. `CCC(C)c1ccc(C(C)NC(=O)CCC(=O)O)cc1` (stereo not given) was tested, and the “% Inhibition” value was -2% and the Z score was 0.26. For `Cc1ccc(CCC(=O)N2CCC[C@@H]2C(=O)O)c(C)c1`, the “% Inhibition” value was -8% and the Z score was 0.91. For `COc1cc(S(=O)(=O)N(CC#N)C2CCCC2)sn1`, the “% Inhibition” value was -1% and the Z score was 0.12. With `COc1ccc(Nc2c(-c3nc(C(C)C)no3)cnc3nc(C)ccc23)cc1OC` the “% Inhibition” value was -13% and the Z score was 1.5. `COc1cc(C(=O)NCCc2ccccc2)c(N(C)S(C)(=O)=O)cc1OC` was tested, and the “% Inhibition” value was -5% and the Z score was 0.75. For `COCCN(Cc1c(C)nn(-c2ccccc2)c1Oc1ccc(F)cc1F)C[C@H](O)COCc1ccccc1`, the “% Inhibition” value was -6% and the Z score was 0.98. `CO[C@@H](CNC(=O)NCc1ncnn1C(C)(C)C)C(C)C` was tested, and the “% Inhibition” value was 3% and the Z score was -0.56. For `CC(C)n1c(-c2cn(C3CCN(S(C)(=O)=O)CC3)nn2)nc2ccccc21`, the “% Inhibition” value was -14% and the Z score was 2.87. With `CCCNC(=O)[C@H](C)NC(=O)Nc1ccc(C)cc1C` the “% Inhibition” value was -6% and the Z score was 0.7. For `CCN1CCN(CC#CCOc2c(OC)cccc2OC)CC1`, the “% Inhibition” value was -8% and the Z score was 0.88. For `CCN1CCCN(CC(=O)Nc2ccc(NC(C)=O)cc2)[C@@H](C)C1`, the “% Inhibition” value was -8% and the Z score was 0.83. For `Cc1cc(=O)n2nc(C(=O)N3CCCC3)nc2[nH]1`, the “% Inhibition” value was 26% and the Z score was -2.99. In the case of `CCOc1cccc(CN=C(NC)NC2CC2)c1OC(F)F`, the “% Inhibition” value is reported as 3% and the Z score is reported as -0.43. In the case of `COC(=O)N1CC[C@H](Nc2nccc(C(F)(F)F)n2)C1`, the “% Inhibition” value is reported as -9% and the Z score is reported as 1.09. For `Cc1cc(C)cc(NC(=O)Cn2ccc3ccc(-c4nnc(C)o4)cc32)c1`, the “% Inhibition” value was 2% and the Z score was -0.2. With `CC(C)n1cc(CNc2cc(Br)cn(C)c2=O)cn1` the “% Inhibition” value was -7% and the Z score was 1.19. `CCc1oc(C(=O)NCCOC(N)=O)cc1C` was tested, and the “% Inhibition” value was -5% and the Z score was 0.49. For `COc1cc(-c2nnc3n2CC(C)(C)CN3)cc(OC)c1OC`, the “% Inhibition” value was 31% and the Z score was -0.1. With `CC(C)(C)OC(=O)N[C@@H]1CCCCC[C@H]1NC(=O)CNC(=O)NC1CC1` the “% Inhibition” value was 34% and the Z score was -3.79. In the case of `CC(C)Cc1cc(C(=O)NC[C@H](C)N2CCN(C)CC2)cc(O)n1`, the “% Inhibition” value is reported as -11% and the Z score is reported as 1.47. `CN1C(=O)[C@@H](c2ccccc2)CC12CCN(C(=O)c1ccc(F)cc1)CC2` was tested, and the “% Inhibition” value was -9% and the Z score was 1.81. For `Cn1ccc(NC(=O)Nc2nc(C3CCC3)cs2)n1`, the “% Inhibition” value was -13% and the Z score was 1.25. With `CCc1ccc(N2C(O)=Nc3ccccc3S2(=O)=O)cc1` the “% Inhibition” value was -7% and the Z score was 1.11. In the case of `CC1CC1C(=O)NC1CCC(CN(C)C(=O)C2CC2C)CC1` (stereo not given), the “% Inhibition” value is reported as 2% and the Z score is reported as -0.41. In the case of `COc1cccc(-c2ncc(CN3C[C@@H](CN4CCOCC4)[C@@H](CO)C3)s2)c1`, the “% Inhibition” value is reported as -1% and the Z score is reported as 0.27. For `Cc1ccc(Oc2ncccc2CNC(=O)c2ccc(C)nc2O)cn1`, the “% Inhibition” value was 2% and the Z score was -0.2. For `CS(=O)(=O)C1(CNC(=O)[C@@H]2CCCN2C2CC2)CC1`, the “% Inhibition” value was -6% and the Z score was 0.93. With `CC(C)NC(=O)c1cccn(-c2ccc(NC(=O)c3ccc(Br)cc3)cc2)c1=O` the “% Inhibition” value was 10% and the Z score was -1.38. `Cc1nc(NCc2c(C)noc2C)n(C)n1` was tested, and the “% Inhibition” value was -4% and the Z score was 0.61. For `O=C(c1ccccc1-c1nnn[nH]1)N1C[C@@H]2CC[C@H]1CN(c1ncccn1)C2`, the “% Inhibition” value was -11% and the Z score was 1.77. With `CCn1c2ccccc2c2cc(-c3nccn3C(CO)CO)ccc21` the “% Inhibition” value was 8% and the Z score was -1.3. For `O=C(NCc1csc(NC(=O)C2CCC2)n1)C1CCC1`, the “% Inhibition” value was -1% and the Z score was 0.16. For `Cc1nc(C)c(C(=O)N[C@H]2CCOC[C@@H]2OCc2cscn2)s1`, the “% Inhibition” value was 1% and the Z score was -0.1. In the case of `C[C@@H](C(=O)NCc1ccc2c(c1)OCO2)n1cncn1`, the “% Inhibition” value is reported as -1% and the Z score is reported as 0.16. With `Fc1ccc(F)c(-c2nc(-c3ccc4nncn4c3)no2)c1` the “% Inhibition” value was -14% and the Z score was 2.38. `CCc1ncc2c(n1)CN(C(=O)c1cnc(C(C)C)nc1C)C2` was tested, and the “% Inhibition” value was 0% and the Z score was -0.05. For `CC(C)C[C@@H](C#N)NC(=O)Cc1ccc(F)cc1`, the “% Inhibition” value was -4% and the Z score was 0.74. For `CN(C)C(=O)c1cc2c(n1C)CN(C(=O)[C@H]1CC(=O)N(C3CCCC3)C1)CC2`, the “% Inhibition” value was 14% and the Z score was -1.92. With `COC(=O)c1cc(C2CC2)nc2c1c(=O)n(Cc1cccc(OC)c1)c(=O)n2-c1ccccc1` the “% Inhibition” value was -16% and the Z score was 2.05. In the case of `CC(=O)c1cccc(NC(=O)O[C@@H]2CO[C@H]3[C@@H]2OC[C@@H]3Nc2nccc(C3CCCC3)n2)c1`, the “% Inhibition” value is reported as 35% and the Z score is reported as -3.91. `COc1ccc(NC(=O)[C@H](Oc2ccc(OC)cc2)c2ccccc2)cc1` was tested, and the “% Inhibition” value was 2% and the Z score was -0.29. In the case of `Clc1cc2c(c(CN3CCC4(CC3)OCCO4)c1)OCOC2`, the “% Inhibition” value is reported as -8% and the Z score is reported as 1.46. With `O=C(COc1ccccc1)N1C[C@@H]2OCC(=O)N(Cc3ccc(F)cc3)[C@@H]2C1` the “% Inhibition” value was -10% and the Z score was 1.26. In the case of `O=C(NCc1cccc(C(F)(F)F)c1)c1ccc(Oc2nccnc2N2CCOCC2)cc1`, the “% Inhibition” value is reported as 7% and the Z score is reported as -1.05. In the case of `CCNC(=O)C(=O)NC[C@](C)(O)c1cc2ccccc2o1`, the “% Inhibition” value is reported as -12% and the Z score is reported as 1.57. For `O=C(NCc1cncc(-c2ccsc2)c1)c1ccc(Cl)s1`, the “% Inhibition” value was -17% and the Z score was 2.61. With `COc1cc(Cl)c(Cl)cc1NCc1ncc(C)o1` the “% Inhibition” value was -3% and the Z score was 0.28. In the case of `CCOC(=O)c1cn(Cc2nnc(C(C)C)o2)nc1C(F)(F)F`, the “% Inhibition” value is reported as -8% and the Z score is reported as 1.09. In the case of `O=C(c1ccc(Cl)cc1)N1CCn2nccc2C1`, the “% Inhibition” value is reported as -11% and the Z score is reported as 1.3. For `CC(C)Cc1cnc(NC(=O)NC(C)C(C)CO)s1` (stereo not given), the “% Inhibition” value was 12% and the Z score was -1.1. `CCN1CC(=O)N[C@H]2CN(C(=O)C3CCOCC3)CC[C@@H]2OCc2cccc(c2)Oc2cccc(c2)CC1=O` was tested, and the “% Inhibition” value was 28% and the Z score was -3.83. With `Cc1cccc(F)c1C(=O)N1CCN(C2CCCCC2)C(=O)C1` the “% Inhibition” value was -6% and the Z score was 0.78. With `COc1ccc(-c2nn(-c3ccccc3C)cc2CN(C)Cc2cn(C)nc2C)cc1F` the “% Inhibition” value was -5% and the Z score was 0.6. In the case of `Cc1nc2n(n1)C[C@@H](Nc1ncnc3sccc13)CC2`, the “% Inhibition” value is reported as -7% and the Z score is reported as 1.46. In the case of `Cc1cc(C)n(C(=O)CNC(=O)c2ccccn2)n1`, the “% Inhibition” value is reported as 40% and the Z score is reported as -5.14. With `Cc1cc(O)c(C(C)C)cc1NC(=O)Nc1c(C)ccn(C)c1=O` the “% Inhibition” value was -7% and the Z score was 1.09. With `CCCc1[nH]nc(CCc2ccc(OC)cc2)c1NC(=O)C1CCCCC1` the “% Inhibition” value was -9% and the Z score was 1.59. In the case of `CCc1nc2c(c(NCCCOc3cccnc3)n1)CCNCC2`, the “% Inhibition” value is reported as 12% and the Z score is reported as -1.57. With `C[C@H](O)CN(CC(=O)Nc1ccc(Cl)cc1)Cc1cccnc1` the “% Inhibition” value was -6% and the Z score was 1.16. For `O=C1CCN(CCCc2ccccc2)CCN1Cc1cc2c(cc1Cl)OCO2`, the “% Inhibition” value was 6% and the Z score was -0.7. In the case of `CCOc1ccc(Nc2nc(-c3cccc(Cl)c3)c3c(n2)-c2ccccc2OC3)cc1`, the “% Inhibition” value is reported as -6% and the Z score is reported as 0.86. For `C[C@@H](C(=O)N1CCCCC1)S(=O)(=O)c1ccc2c(c1)CCCC2`, the “% Inhibition” value was -6% and the Z score was 0.97. With `CCc1n[nH]c(=O)c2cc(S(=O)(=O)NCc3ccco3)cn12` the “% Inhibition” value was 6% and the Z score was -0.78. For `COC[C@H]1C[C@@H](NCc2cccc(Cl)c2)[C@H](O)[C@@H]1O`, the “% Inhibition” value was -6% and the Z score was 0.89. In the case of `CC(C)N(C)c1ccccc1CNC(=O)NC[C@H](C)O`, the “% Inhibition” value is reported as 4% and the Z score is reported as -0.45. With `C[C@H]1CN(C(=O)CCCn2cncn2)CCN1c1ccccc1` the “% Inhibition” value was -8% and the Z score was 1.24. `CN(CCN(C)C1CC1)C(=O)c1cnc(C2CCCC2)nc1N` was tested, and the “% Inhibition” value was -4% and the Z score was 0.84. In the case of `Cn1cc(NC(=O)CCCc2nnc3ccccn23)cn1`, the “% Inhibition” value is reported as -7% and the Z score is reported as 1.35. `O=C(c1ccn(C(=O)c2ccccc2Cl)n1)N1CCCCC1` was tested, and the “% Inhibition” value was 12% and the Z score was -1.44. `O=C1CCCC(C(=O)NC[C@@H]2C[C@H]2C2CCCCC2)N1` (stereo not given in full) was tested, and the “% Inhibition” value was -3% and the Z score was 0.31. With `COc1ccc(S(=O)(=O)N(C)c2ccnc(C(=O)NCc3ccc4c(c3)OCO4)c2)cc1` the “% Inhibition” value was -2% and the Z score was 0.38. With `OCCN(CCO)c1ccccc1N(CCO)CCO` the “% Inhibition” value was -9% and the Z score was 1.76. For `C[C@H](NC(=O)c1n[nH]c(=O)c2ccccc12)c1ccncc1`, the “% Inhibition” value was -4% and the Z score was 0.51. With `Cc1ccsc1CN1CC[C@](C)(O)[C@H](CC(C)C)C1` the “% Inhibition” value was -7% and the Z score was 1.34. `c1ccc(CN2CCC(Nc3ccc4nnnn4n3)CC2)cc1` was tested, and the “% Inhibition” value was -8% and the Z score was 1.01. `CN1CCN([C@H]2CCCCN(C(=O)N(C)c3ccc(F)cc3)C2)CC1` was tested, and the “% Inhibition” value was 4% and the Z score was -0.64. With `Cc1cc(C(=O)Nc2ccc(Oc3ccc(F)cc3F)nc2)ncn1` the “% Inhibition” value was 6% and the Z score was -0.88. For `Cc1ccc(NC(=O)c2cnn3c2NC(c2ccc(C)cc2)=C[C@H]3c2ccc(F)cc2)cc1`, the “% Inhibition” value was -3% and the Z score was 0.27. With `CC(C#N)CN(C)S(=O)(=O)N1CCCCC1c1nnc[nH]1` (stereo not given) the “% Inhibition” value was -3% and the Z score was 0.33. In the case of `Cc1ccc(S(=O)(=O)NCc2nc(-c3cccn3C)no2)s1`, the “% Inhibition” value is reported as 4% and the Z score is reported as -0.51.

Reference: ChEMBL document CHEMBL4888484, “Replenishing the malaria drug discovery pipeline: Screening and hit evaluation of the MMV Hit Generation Library 1 (HGL1) against asexual blood stage Plasmodium falciparum ,using a nano luciferase reporter read-out” (2022)
